From patent publication US20200390902A1, “Antibody-Drug Conjugates Targeted at Human Aspartyl-(Asparaginyl)-B-Hydroxylase (HAAH)” (Panacea Pharmaceuticals, Inc., priority 2017, published 2020) come the findings set out here.

In one test the test system is H460 cells. As to the kind of experiment: MTS cell viability assay, H460. In kind it is cell-based, human. The settings on record: H460, 24 hours. On the procedure: (§1) Human H460 cells were obtained from the American Type Culture Collection (ATCC; Manassas, Va., U.S.A.). The H460 cells were seeded at a density of 5,000 cells/well in 96-well plates and cultured in HG-DMEM (ThermoFisher Scientific, Waltham. Mass., U.S.A.; Catalog No. 11965-092) supplemented with 20 mM HEPES, 4 mM L-glutamine, 1 mM sodium pyruvate, 1× non-essential amino acids, 50 μg/ml gentamicin, and 10% fetal bovine serum (FBS)). Human MOLM-14 cells were obtained from Dr. Ashkan Emadi at University of Maryland (Baltimore. Md., U.S.A.). The MOLM-14 cells were seeded at a density of 5000 cells/well in 96-well plates and cultured in RPMI 1640 with 20% heat-inactivated FBS. The H460 and MOLM-14 cells were treated with naked antibodies or ADCs for 24 hours, starting at the time of cell seeding. By the end of experiment, the cell viability for both cell lines was determined quantitatively using CELL TITER 96 AQUOUS ONE SOLUTION cell proliferation assay, a colorimetric method for determining the number of viable cells (MTS; Promega, Madison. Wis., U.S.A.; Catalog No. G3582).
FIG. 6 depicts the effects of linker and payload on cytotoxicity to cancer cell H460. […] The Log of the antibody concentration in nM is shown on the X axis.
The bioactivities of these SNS622 ADCs were examined using H460 cells. The cells were treated for 48 hours with these SNS622-MC-DM1s, or with SNS622 as control. Cell viability was evaluated at the end of the experiment using an MTS assay.
SNS622-MC-vc-PAB-DM1 and SNS622-MC-MMAE were also synthesized under different initial DAR ratios of 2.5:1, 5:1 and 10:1 at fixed pH8. The 460 cells were treated for 72 hours with ADCs SNS622-MC-vc-PAB-DM1 at with OAR 2.5:1; 5:1; and 10:1, or SNS622-MC-MMAE at with DAR 2.5:1; 5:1; and 10:1. The cell viability and cell death were separately quantified with […] and lactate dehydrogenase (LDH) release assays. FIG. 8A depicts a graph of the MTA quantification results expressed as percentage of untreated control. FIG. 8B depicts a graph of the LDH assay results expressed as percentage of 512 nM DM1-elicited maximal LDH release. The Log of the antibody concentration in nM is shown on the X axis.
On the technique in general: Formazan colour is commonly taken as a measure of viable cells.

A further test has as its system MOLM-14 cells. Nature of the test: MTS cell viability assay, MOLM-14. In kind it is cell-based, human. The following applies: MOLM-14, 24 hours. Here is the method:
as §1, with “The H460 cells were seeded at a density of 5,000 cells/well in 96-well plates and cultured in HG-DMEM (ThermoFisher Scientific, Waltham. Mass., U.S.A.; Catalog No. 11965-092) supplemented with 20 mM HEPES, 4 mM L-glutamine, 1 mM sodium pyruvate, 1× non-essential amino acids, 50 μg/ml gentamicin, and 10% fetal bovine serum (FBS)).” left out

Test [1] relates to metastatic nodules in the lungs (PDAC PDx). As to the kind of experiment: PDx model of PDAC, lung metastasis. Type of test: in vivo, mouse. The settings on record: 1.9 mg/kg, after 6 weeks of administration. The source says:
Pancreatic ductular adenocarcinoma (PDAC) is a highly lethal malignancy with limited treatment options. HAAH is a cell surface protein that is highly expressed in […] of PDACs. The specificity of SNS622-MC-DM1 was next examined in the patient-derived xenograft (PDx) mouse model PDAC. The patient-derived xenograft (PDx) murine model was established by using surgically resected PDAC (from Rhode Island Hospital, Providence, R.I., U.S.A.). Five to six-week-old female Nod Scid Gamma (NSG) mice were employed. […] Body weight and tumor size were measured twice a week and tumor volume was calculated using the modified ellipsoid formula (0.5×length×width^2). To determine the effect of SNS622-MC-DM1 on lung metastasis, all lung tissues were immersed in Bouin's fixative solution (Sigma-Aldrich, St. Louis, Mo., U.S.A.; catalog No, HT10132) and metastatic nodules on the surface of the lungs were counted. […]
This phenotype was maintained in the PDx model of NSG mouse. […] In this context, dose and period of administration of PAN-622 or SNS622-MC-DM1 for treatment of NSG mice was reduced to 1.9 mg/kg and the development and growth of metastatic nodules in the lungs after the treatment was assessed After 6 weeks of administration, the number of macroscopic metastatic nodules on the lung surface was determined.

Entries after “also recorded” stand apart in the source; their conditions may differ.

B1: SNS622: high-affinity, fully-humanized monoclonal antibody against human aspartyl (asparaginyl) beta-hydroxylase; SEQ ID NO: 1 and 2 (antibody)
heavy: QVQLQQSGPGLVKPSQTLSLTCAISGDSVSSNSAAWNWIRQSPSRGLEWLGRTYYRSKWYNDYAVSVKSRITINPDTSKNQFSLQLNSVTPEDTAVYYCARTGYSSSWVVNFDYWGQGTLVTVSSASTKGPSVFPLAPSSKSTSGGTAALGCLVKDYFPEPVTVSWNSGALTSGVHTFPAVLQSSGLYSLSSVVTVPSSSLGTQTYICNVNHKPSNTKVDKRV[human IgG1 Fc left out]
light: QPVLTQSPSASGTPGQRVTISCSGSSSNIGSNYVYWYQQLPGTAPKLLIYKNNQRPSGVPDRFSGSKSGTAASLAISGLQSEDEADYYCAAWDDSLRGYVFGTGTKLTVLGQPKAAPSVTLFPPSSEELQANKATLVCLISDFYPGAVTVAWKADSSPVKAGVETTTPSKQSNNKYAASSYLSLTPEQWKSHRSYSCQVTHEGSTVEKTVAPTECS
modifications: Heavy Chain; Light Chain
In the case of B1, the results for the “Effect on H460 cell viability / growth (MTS)” value in the test with H460 cells and in the test with H460 cells (listed as PAN-622) were “no changes in the viability of the H460 cells; also recorded: neither IgG1 nor SNS622 alone induced growth suppression of H460” and “did not display any killing of the H460 cell line”, respectively. Moreover, the “Effect on MOLM-14 cell viability / growth (MTS)” value in the test on MOLM-14 cells was “did not suppress the in vitro growth of MOLM-14; also recorded: little to no changes in MOLM-14 cell viability”. Moreover, the “Total number of metastatic nodules in group” value in test [1] is reported as “around 60”.
